“And” between values parts separate entries of the source, which are not always exact repeats. Equal values may be shown once.
Key:
[1] = biological target: T1, N. gonorrhoeae gyrase (Neisseria gonorrhoeae, UniProt P22118+P48371); assay: biochemical
[2] = biological target: T2, N. gonorrhoeae gyrase GyrA^D95G (Neisseria gonorrhoeae, UniProt P22118+P48371, D95G); assay: biochemical
T2 construct: made in house

[3] = biological target: T1, N. gonorrhoeae gyrase
[4] = biological target: N. gonorrhoeae gyrase GyrA^S91F/D95G (Neisseria gonorrhoeae, UniProt P22118+P48371, D95G/S91F); assay: biochemical
[5] = biological target: N. gonorrhoeae gyrase GyrA^S91F (Neisseria gonorrhoeae, UniProt P22118+P48371, S91F); assay: biochemical
[6] = biological target: T1, N. gonorrhoeae gyrase; assay: biochemical; conditions: IC50, inhibition of gyrase-catalyzed DNA supercoiling

With `CC1CN2c3c(cc4c(OCC5CCC(=O)N5)noc4c3F)CC3(C(=O)NC(=O)NC3=O)C2C(C)O1` (stereo not drawn) [H3D-005722] the “DNA cleavage profile with gyrase compared with zoliflodacin” value [1] was “very similar to that of zoliflodacin”.
In the case of `C[C@@H]1CN2c3c(cc4c(N5C(=O)OC[C@@H]5C)noc4c3F)CC3(C(=O)NC(=O)NC3=O)[C@H]2[C@H](C)O1` [zoliflodacin, Zoliflodacin], the IC50 [2] is reported as roughly 4.4 µM, the “stability of gyrase-DNA-SPT complex relative to topoisomerase IV complex” value [3] is reported as “≈ 10 times” and the IC50 [4] is reported as roughly 3.8 µM. For the same compound, the IC50 [5] was roughly 3 µM, the EC50 [1] was roughly 16.2 µM and the “double-stranded DNA cleavage” value [1] was 32.9%. For the same compound, the “total (double-stranded + single-stranded) DNA cleavage” value [1] was 41.1% and the IC50 [6] was 1.54 µM and ~1.5 µM.
